Laboratory results as given in paper PMC4336329 (PLoS ONE, 2015).
About 14,000 (4.5%) of roughly 310,000 compounds showed an effect of 50% or more. The effect is printed as a negative number. Some of the results follow.

The compounds below were run against human ether-à-go-go-related gene (hERG) potassium channel (human, UniProt Q12809) (assay: primary screen, population patch clamp on CHO cells stably expressing hERG).
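Also: peak tail current of the secondary pulse compared with the same well before compound.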

Chain of human ether-à-go-go-related gene (hERG) potassium channel (Q12809 whole entry, looked up): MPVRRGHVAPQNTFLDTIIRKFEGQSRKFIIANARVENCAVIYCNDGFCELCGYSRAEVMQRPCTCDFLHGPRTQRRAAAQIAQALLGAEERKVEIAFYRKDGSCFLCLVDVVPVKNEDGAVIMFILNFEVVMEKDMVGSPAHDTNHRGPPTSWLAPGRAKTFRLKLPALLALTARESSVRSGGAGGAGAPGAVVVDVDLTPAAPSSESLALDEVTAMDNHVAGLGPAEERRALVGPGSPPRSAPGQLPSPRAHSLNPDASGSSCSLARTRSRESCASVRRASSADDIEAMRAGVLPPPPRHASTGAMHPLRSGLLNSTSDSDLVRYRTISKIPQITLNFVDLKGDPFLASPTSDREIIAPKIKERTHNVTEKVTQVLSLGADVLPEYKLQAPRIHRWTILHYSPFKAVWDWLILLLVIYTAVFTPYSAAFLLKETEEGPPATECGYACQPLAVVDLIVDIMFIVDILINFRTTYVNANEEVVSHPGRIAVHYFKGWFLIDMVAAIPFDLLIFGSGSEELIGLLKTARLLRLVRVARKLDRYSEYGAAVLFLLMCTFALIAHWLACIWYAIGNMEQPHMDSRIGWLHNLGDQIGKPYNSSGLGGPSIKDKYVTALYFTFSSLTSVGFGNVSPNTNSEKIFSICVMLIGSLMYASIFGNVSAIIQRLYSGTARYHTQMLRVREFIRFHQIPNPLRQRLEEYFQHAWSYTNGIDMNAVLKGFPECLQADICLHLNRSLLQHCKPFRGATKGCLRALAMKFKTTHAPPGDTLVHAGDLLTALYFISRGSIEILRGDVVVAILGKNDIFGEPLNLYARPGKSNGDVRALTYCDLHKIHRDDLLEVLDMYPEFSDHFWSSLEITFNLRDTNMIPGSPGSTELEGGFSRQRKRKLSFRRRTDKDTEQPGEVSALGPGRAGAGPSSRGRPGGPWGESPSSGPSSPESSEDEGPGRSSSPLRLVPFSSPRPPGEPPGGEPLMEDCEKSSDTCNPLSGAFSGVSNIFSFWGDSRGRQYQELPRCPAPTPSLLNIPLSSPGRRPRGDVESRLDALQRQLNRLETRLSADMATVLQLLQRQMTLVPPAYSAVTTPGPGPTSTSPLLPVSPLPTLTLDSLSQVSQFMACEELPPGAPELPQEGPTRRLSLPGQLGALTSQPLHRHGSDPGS

Point of comparison: `Cc1cccc(-n2c(O)c(C=Nc3cccc(O)c3)c3ccccc3c2=O)n1`, “hERG current change (%, negative = inhibition) at 10uM” value 0.602%. Against it:
- COc1ccccc1CNC(=O)Cn1cc2c(n1)CCCC2 — lower, -2.57%
- Clc1ccc(CN2CCCCCC2)cc1.O=C(O)C(=O)O — lower, -9.46%
- CCCC(=O)Nc1ccc2c(c1)COC2=O — higher, 16.8%
- Cc1ccc(CC2CC(=O)N(c3ccncc3)C2=O)cc1 (stereo not drawn) — higher, 6.32%
- CN(C(=O)CCNC(=O)Cn1ccc2ccccc2c1=O)c1ccc(Br)cc1 — higher, 17.5%
- COc1ccc([N+](=O)[O-])cc1NS(=O)(=O)c1ccccc1 — higher, 8.94%
- CN(C)CCCN=C(NO)c1ccc(Cl)cc1Cl — higher, 15.2%
- CC(=O)N=c1sc2ccccc2n1C — higher, 11.7%
- O=C(/C=C/c1ccco1)N1CCc2ccccc21 — higher, 4.9%
- Cc1ccc(NC(=O)Cn2ccc([N+](=O)[O-])n2)cc1C — higher, 14.2%
- N#C/C(=C\c1ccc(Cl)cc1)c1nc2ncccc2[nH]1 — lower, -15.1%
- O=S(=O)(c1cccs1)N1CCN(Cc2cccc(F)c2)CC1 — lower, -1.83%
- N#Cc1c(N)n(-c2ccccc2N)c2nc3ccccc3nc12 — higher, 15.1%
- Cc1ccc(NC(=O)CCNS(=O)(=O)c2ccc3c(c2)oc(=O)n3C)cc1 — lower, -13.2%
- Cc1ccccc1NC(=O)c1ccc(-n2cncn2)nc1 — lower, -14.1%
- Fc1ccc(C2c3[nH]c4ccccc4c3CCN2CCCn2cccn2)cc1 (stereo not drawn) — lower, -70.1%
- CCNNC(=O)C(O)(Cc1ccccc1)Cc1ccccc1 — higher, 13.4%
- CCN1C(=O)C(CC(=O)Nc2cc(C)ccc2C)SC1=Nc1ccc(S(N)(=O)=O)cc1 (stereo not drawn) — lower, -13.2%
- O=C(Nc1ccc(CN2CCOCC2)cc1)c1ccc(N2CCCC2)c([N+](=O)[O-])c1 — lower, -21.4%
- COc1ccc(C2=NN(C(=O)c3ccc(Cl)c([N+](=O)[O-])c3)C(c3ccccc3)C2)cc1 (stereo not drawn) — higher, 10.4%
- COc1ccc(OC)c(NS(=O)(=O)c2ccc(Cl)s2)c1 — lower, -4.52%
- O=C(COC(=O)c1cc(-c2cccs2)nn1-c1ccccc1)Nc1ccc(Cl)c([N+](=O)[O-])c1 — higher, 2.93%
- CCn1cc(C(C)NC(=O)COc2ccc(Cl)cc2C)c(C)n1 (stereo not drawn) — higher, 13.7%
- Cc1ccc(C2=CC(c3cccs3)n3nnnc3N2)cc1 (stereo not drawn) — lower, -1.97%
- CCN1CCN(C(c2cccs2)C(C)NC(=O)c2c(F)cccc2F)CC1 (stereo not drawn) — lower, -7.77%
- COc1ccc([C@@H]2[C@H]3C(=O)N(c4cccc(C(F)(F)F)c4)C(=O)[C@H]3ON2C)cc1 — lower, -12.1%
- O=C(C1CC1)N1CCN=C1SCc1cccc(F)c1 — lower, -2.29%
- CC(=O)c1ccc(OCc2cc(C(=O)N(C)Cc3ccccn3)no2)cc1 — lower, -26.1%
- Cc1oc(-c2cccc(Cl)c2)nc1CN1CCC(C(=O)NCc2ccco2)CC1 — lower, -78%
- O=C(COC(=O)c1ccccc1OCc1ccc(Cl)cc1)NC1CC1 — higher, 8.16%
- CC(=O)c1sc2c(c1N)c(=O)[nH]c(=O)n2-c1ccccc1 — higher, 10.2%
- CCc1ccc(NC(=O)C(C)OC(=O)c2c(C)nn(Cc3ccccc3)c2Cl)cc1 (stereo not drawn) — higher, 2.72%
- O=C(O)C1C2CCC(C2)C1C(=O)NCc1ccco1 (stereo not drawn) — lower, -8.3%
- COc1ccc(C(=O)Oc2ccc3c(c2)OCO3)cc1OC — lower, -1.19%
- CN(C)S(=O)(=O)N(CC(=O)Nc1ccc(F)c(F)c1)c1ccccc1 — lower, -35.4%
- CC(c1ccncn1)N(C)Cc1nc(Cc2ccccc2F)no1 (stereo not drawn) — higher, 34.6%
- COc1ccc2sc(C)nc2c1NC(C)=O — higher, 9.21%
- CCOc1ccc(C2/C(=C(/O)c3ccc4c(c3)CC(C)O4)C(=O)C(=O)N2CC2CCCO2)cc1 (stereo not drawn) — higher, 13.4%
- CC(C)C12CN3CC(C(C)C)(CN(C1)C31C(=O)Nc3ccccc31)C2=O (stereo not drawn) — higher, 12.7%
- Cc1ccc(/C=N/n2c(C)nnc2C)cc1 — lower, -17.2%
- Cc1ccc(SCc2ccc(C(=O)N3CCCC3)cc2)cc1 — lower, -30.1%
- CCOc1ccccc1NC(=O)N1CCC(c2nc3ccccc3[nH]2)CC1 — lower, -23.6%
- CC(=O)N1CCc2c(sc(NC(=O)Cc3ccc(F)cc3)c2C#N)C1 — higher, 13.6%
- CCC(CO)Nc1ccc(-c2nn(C)c(=O)c3ccccc23)cc1[N+](=O)[O-] (stereo not drawn) — lower, -9.64%
- Fc1cccc(NC(=S)NCCN2CCOCC2)c1 — lower, -1.66%
- COc1ccc(CCCC(=O)NCc2ccccc2)cc1C — lower, -3.49%
- CC1(C)CC(=O)C2=C(C1)N(c1ccc(F)cc1)C(=O)CC2c1cccnc1 (stereo not drawn) — higher, 3.95%
- Cc1ccc(C(O)(C(=O)NN(C(=O)c2ccccc2)c2ccccc2)c2ccc(C)cc2)cc1 — higher, 10.5%
- Cc1ccc(C2=NN(C(=O)CCC(=O)O)C(c3cccc([N+](=O)[O-])c3)C2)cc1 (stereo not drawn) — higher, 11.9%
- COC(=O)c1ccc(N2C(=O)CC(N(C)Cc3ccccc3)C2=O)cc1 (stereo not drawn) — higher, 10.3%
- Cc1ccccc1S(=O)Cc1ccc(C(=O)NCCN2CCOCC2)o1 (stereo not drawn) — higher, 26.2%
- CC(=O)O[C@H]1CC[C@H]2[C@@H]3CCc4cc(O)ccc4[C@H]3CC[C@]12C — lower, -5.79%
- CCCCN(CCCNC(=O)C1CCN(S(=O)(=O)CC)CC1)c1ccccc1 — lower, -51.1%
- O=C(N/N=C/c1cccc(OC(=O)c2ccc3c(c2)OCO3)c1)c1cncc(Br)c1 — higher, 22.2%
- Cn1c(SCC(O)c2ccccc2)nnc1-c1ccc2ccccc2c1 (stereo not drawn) — lower, -21.5%
- CC1(C)CC(=O)C(N=Nc2ccc(Br)cc2)=C(O)C1 — higher, 9.43%
- CCn1c(=O)n(CC)c2cc(S(=O)(=O)N3CCOCC3)ccc21 — higher, 2.39%
- O=C(Cn1nc(Br)nc1Br)c1ccccc1 — higher, 4.41%
- Cc1ccc(-c2csc(NC(=O)CCCc3cccs3)n2)cc1 — higher, 5.65%
- Br.COc1ccccc1Nc1nc(-c2cccc(N3C(=O)c4ccccc4C3=O)c2)cs1 — higher, 26.4%
- O=C(C1CCCN(Cc2cccc(Cl)c2)C1)N1CCCCC1.O=C(O)C(=O)O (stereo not drawn) — lower, -10.7%
- O=C(c1ccccc1)N1CCCC(C(=O)N2CCCCCC2)C1 (stereo not drawn) — lower, 0.0243%
- CCC(=O)N1CCc2cc(S(=O)(=O)N3CCCCC3CC)ccc21 (stereo not drawn) — higher, 2.2%
- Cc1cccc2nc(CNC(=O)C3CCC(=O)N(Cc4ccccc4F)C3)cn12 (stereo not drawn) — higher, 2.82%
- O=C1NN(c2cccc(Br)c2)C(=O)/C1=C\c1ccc(N2CCOCC2)cc1 — higher, 25.7%
- c1ccc(-c2nnc3n2-c2ccccc2SC3)cc1 — higher, 8.11%
- CCc1ccccc1N1C(=O)CC(Sc2nccc(C)n2)C1=O (stereo not drawn) — higher, 8.46%
- O=C(c1ccc(Br)s1)N1CCN(Cc2ccc3c(c2)OCO3)CC1 — lower, -36.3%
- Cc1c(Cl)c(C(=O)N2CCCC2)nn1C — higher, 7.73%
- Cc1ccccc1-n1nnnc1Sc1nnnn1-c1ccccc1 — lower, -9.48%
- O=C(COC(=O)COc1ccccc1[N+](=O)[O-])NC1CCCCC1 — lower, -23.7%
- Cc1ccc2nc(-c3cccc(NS(C)(=O)=O)c3)cc(-c3ccccc3)c2c1 — higher, 5.58%
- CSc1ccc(/C=N/NC(=O)c2ccc(O)cc2)cc1 — lower, -2.63%
- CCSc1nc2ccc(C)cc2cc1C#N — higher, 11.2%
- O=C(Nc1ccc(S(=O)(=O)N2CCCCC2)cc1)c1ccc(F)cc1 — higher, 4.57%
- CC1=C(c2ccc(C)cc2)[N+](=O)C(C)(C)N1[O-] — higher, 17.6%
- CS(=O)(=O)N1CCCC(C(=O)Nc2cccc(F)c2)C1 (stereo not drawn) — higher, 8.65%
- O=C(Nc1ccccc1C(=O)O)c1cccc(NS(=O)(=O)c2ccc(Br)cc2)c1 — higher, 24.4%
- COc1cccc(OC)c1NC(=O)CN1CCC(NC(=O)c2cccc(F)c2)CC1 — higher, 1.5%
- COc1cc(CN2CCCC(C(=O)N3CCc4ccccc4C3)C2)cc(OC)c1OC (stereo not drawn) — lower, -62%
- Cc1ccc(S(=O)(=O)NCc2csc(C)n2)cc1 — higher, 14.8%
- CCN(CC)C(=O)c1cc(-c2ccc(Br)cc2)on1 — lower, -8.06%
- CC(C)(C)n1nnnc1C(c1cccnc1)N1CCN(C(=O)c2ccco2)CC1 (stereo not drawn) — lower, -15.1%
- CC1(C(O)(C#CCN2CCCCC2)c2ccccc2)CCCC1.Cl (stereo not drawn) — lower, -45.1%
- CCOc1ccc2nc(C)cc(Nc3ccc4c(c3)OCCO4)c2c1.Cl — lower, -72.4%
- C#CCNc1ccc(C(=O)OCC)cc1 — higher, 11.8%
- COc1ccc(CCNc2cc(C)[nH]c(=O)c2)cc1OC — higher, 29.6%
- COc1ccc(NC(=O)N2CCCC(CNS(=O)(=O)c3cccs3)C2)c(C)c1 (stereo not drawn) — higher, 10.9%
- Cc1cc(C)c(NC(=O)COC(=O)c2ccc([N+](=O)[O-])s2)c(C)c1 — lower, 0.0437%
